Experimental data from PubChem BioAssay (NCI).
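Test compounds were applied to cells in 96-well plates for 48 hours at 5 doses. GI50 marks 50% less growth. TGI: total growth inhibition.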

Tested on: NCI-H322M lung
Test: DTP human tumour cell line panel, 48 h

Row | SMILES | GI50 [nM] | TGI [nM]
1 | COc1ccccc1/C=C/C=N/NC1=NC2C(S1)N(C)C(=O)N2c1ccccc1 (stereo unspecified) | 839 | > 100000
2 | N#Cc1c(-c2ccc(Cl)cc2)nc(SCc2ccc([N+](=O)[O-])cc2)nc1N1CCNCC1 | 1600 | 2960
3 | CN(C)CCNC(=O)c1ccc(-c2nc3ccc4[nH]ncc4c3c3c2COCC3)cc1 | 1330 | 6510
